Data: ChEMBL document CHEMBL3822376, “Potent anticholinesterasic and neuroprotective pyranotacrines as inhibitors of beta-amyloid aggregation, oxidative stress and tau-phosphorylation for Alzheimer's disease” (Eur J Med Chem, 2016)

Legend:
[1] = tested on: COC(=O)C1=C(C)Oc2nc3c(c(N)c2C1c1cc2ccc(OC)cc2nc1Cl)CCCC3; settings: Electrophorus electricus; 0.01 uM
[2] = tested on: COC(=O)C1=C(C)Oc2nc3c(c(N)c2C1c1cc2ccc(OC)cc2nc1Cl)CCCC3; settings: Electrophorus electricus; 1 uM
[3] = tested on: COC(=O)C1=C(C)Oc2nc3c(c(N)c2C1c1cc2ccc(OC)cc2nc1Cl)CCCC3; settings: Electrophorus electricus; 5 uM
[4] = tested on: COC(=O)C1=C(C)Oc2nc3c(c(N)c2C1c1cc2ccc(OC)cc2nc1Cl)CCCC3; settings: Electrophorus electricus; 0.1 uM
[5] = tested on: COC(=O)C1=C(C)Oc2nc3c(c(N)c2C1c1cc2ccc(OC)cc2nc1Cl)CCCC3; settings: Electrophorus electricus; 0.5 uM
[6] = tested on: COC(=O)C1=C(C)Oc2nc3c(c(N)c2C1c1cc2ccc(OC)cc2nc1Cl)CCCC3; settings: Electrophorus electricus; 0.05 uM

Acetylcholinesterase (Electrophorus electricus) (no sequence given)
Vmax [1]: 0.085 deltaOD/min
Vmax [2]: 0.043 deltaOD/min
Vmax [3]: 0.024 deltaOD/min
Vmax [4]: 0.083 deltaOD/min
Vmax [5]: 0.059 deltaOD/min
Vmax [6]: 0.084 deltaOD/min
